Reference: PubChem BioAssay AID686979 (National Center for Advancing Translational Sciences (NCATS), 2013)
Out of some 420,000 compounds screened, about 50,000 (12%) were called active. Inconclusive results, whose numbers are uncertain, are shown with a selection of clear calls. The call rests on the fitted dose curve; in most records, active means well fitted inhibition curve with a large enough effect; inconclusive means small, poorly fitted or top-dose-only effect; inactive means flat fitted curve, though single readings scatter. No potency is given beside an inconclusive call; the fits are too rough.

assay: qHTS for Inhibitors of human tyrosyl-DNA phosphodiesterase 1 (TDP1): qHTS in cells in presence of CPT; conditions: chicken DT40 Tdp1-/-;hTDP1 cells + 20 nM CPT, ATP luminescence, 48 h; activity change, negative = growth inhibition: at 46.2 µM (top of the series); further: nearly all actives have a fitted effect of over 55% in size
In short: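 Chicken DT40 Tdp1-/- cells stably complemented with human TDP1 were seeded at 400 cells/well in medium containing 20 nM camptothecin, exposed to pin-transferred compounds, and grown at 37 °C for at least 48 hr. Viability was read as ATP luminescence.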
On the % scale 0 is the no-effect control and ±100 the full control effect; potency means the concentration at half of the fitted maximal effect; tags describe the fitted curve by direction and shape.

Question: Which Potency does the source give for `Cc1ccnc(SCCn2c(N3CCC(C)CC3)nc3c2c(=O)n(C)c(=O)n3C)n1` here?
Answer: inconclusive [inhibitor, single point]

Question: Which Potency does the source give for `Cc1ccc(Nc2nc3ccccc3s2)cc1` here?
Answer: inconclusive [inhibitor, single point]

Question: With `COc1ccc(NC(=O)N2CCCC3(CCN(C(=O)c4cccc(F)c4)CC3)C2)cc1` as the compound, how does the Potency read?
Answer: inactive

Question: Which Potency does the source give for `CCOC(=O)c1cccc(NC(=O)c2ccc(NC(=O)c3ccco3)cc2)c1` here?
Answer: inconclusive [inhibitor, partial curve]

Question: Which Potency does the source give for `O=C(Nc1ccccc1)c1ccccc1OCc1ccc(F)cc1` here?
Answer: inconclusive [inhibitor, single point]

Question: With `CC(C(=O)N/N=C/c1ccc(N(C)C)c(Br)c1)N(c1ccccc1)S(C)(=O)=O` (stereo not given) as the compound, how does the activity change, negative = growth inhibition read?
Answer: inconclusive: -33.7% [inhibitor]

Question: Which Potency does the source give for `CCCCn1c(N)c(N(Cc2ccccc2OC)C(=O)c2ccc([N+](=O)[O-])s2)c(=O)[nH]c1=O` here?
Answer: inconclusive [inhibitor, single point]

Question: Which Potency does the source give for `CCOC(=O)c1cncc(NC(=O)c2ccccc2)c1` here?
Answer: inactive

Question: With `Cc1cc2cc(C(=O)N3CCc4c([nH]c5ccccc45)C3c3ccccn3)ccc2o1` (stereo not given) as the compound, how does the Potency read?
Answer: inconclusive [inhibitor, single point]

Question: With `CCc1nc2ccc(C(=O)Nc3ccc(C(=O)N(C)C)cc3)cn2c1N(C)CCCc1ccccc1` as the compound, how does the Potency read?
Answer: inconclusive [inhibitor, single point]

Question: With `COc1ccc(OC)c(NC(=O)COC(=O)c2c(C)noc2C)c1` as the compound, how does the Potency read?
Answer: inactive

Question: With `Cc1ccccc1S(=O)(=O)N1C[C@H]2CON(C)[C@H]2C[C@H]1c1cccc(Br)c1` as the compound, how does the Potency read?
Answer: inactive

Question: With `O=C1CCCC/C=C\C[C@H](CC(=O)N(CCO)Cc2ccccc2)C(=O)NCCO1` as the compound, how does the Potency read?
Answer: inactive

Question: With `Nc1nc(N)c(N=Nc2ccc(SCC(=O)O)cc2)c(=O)[nH]1` as the compound, how does the Potency read?
Answer: inactive

Question: With `Cc1nc2nc(SCC(=O)Nc3cccc(Cl)c3)nn2c(C)c1Cc1ccccc1` as the compound, how does the Potency read?
Answer: inconclusive [inhibitor, single point]

Question: With `CC(C)Cn1cc(NC(=O)NCc2ccccc2)c2ccccc2c1=O` as the compound, how does the Potency read?
Answer: inconclusive [inhibitor, partial curve]

Question: Which Potency does the source give for `CCc1ccc(S(=O)(=O)Nc2cccc(-c3ccc4nnc(C)n4n3)c2)s1` here?
Answer: active: 23.1 µM

Question: Which Potency does the source give for `CC1(C)CC(=O)C=C(Nc2cccc(C(F)(F)F)c2)C1` here?
Answer: inactive

Question: With `COCOCCn1cc(CN2CCS(=O)(=O)N(Cc3ccc(-c4ccc(C)cc4)cc3)C(C(C)C)C2=O)nn1` (stereo not given) as the compound, how does the Potency read?
Answer: inconclusive [inhibitor, partial curve]

Question: Which Potency does the source give for `COc1ccccc1C1=NS(=O)(=O)N(C)C(C(=O)Nc2cc(OC)c(OC)c(OC)c2)=C1` here?
Answer: inconclusive [inhibitor, single point]

Question: For `O=S(=O)(NCc1ccccc1Cl)c1ccc(-c2cnc(C3CC3)o2)cc1`, which Potency is on record?
Answer: active: 3.66 µM

Question: Which Potency does the source give for `CCOc1ccc(S(=O)(=O)N2CCN(C(=S)NCc3ccco3)CC2)cc1` here?
Answer: inactive

Question: With `CCOC(=O)C1=CCC2C(=O)N(CC)C(=O)C12` (stereo not given) as the compound, how does the activity change, negative = growth inhibition read?
Answer: inconclusive: -38.3% [inhibitor]

Question: With `Cc1cccc(NC(=S)N2N=CCC2c2ccccc2)c1` (stereo not given) as the compound, how does the Potency read?
Answer: inconclusive [inhibitor, partial curve]

Question: With `Cc1cc(C)c(S(=O)(=O)N2CCCc3ccccc32)c(C)c1` as the compound, how does the Potency read?
Answer: inconclusive [inhibitor, single point]

Question: For `Cc1nc2ccc(NC(=O)c3cccs3)cc2c(=O)n1Cc1ccc(Cl)cc1`, which Potency is on record?
Answer: active: 18.4 µM

Question: Which Potency does the source give for `CN(C)CCN(CC1CCCN(Cc2ccccc2F)C1)C(=O)c1ccc(Cl)cc1` (stereo not given) here?
Answer: inconclusive [inhibitor, single point]

Question: With `CN(C)c1ccc(/C=C/c2ccnc3ccccc23)cc1C=O` as the compound, how does the Potency read?
Answer: active: 15.8 µM

Question: For `CCC1=Nc2cc(C(=O)NCc3ccccc3OC)ccc2Sc2ccc(Cl)cc21`, which Potency is on record?
Answer: inconclusive [inhibitor, single point]

Question: Which Potency does the source give for `O=C(CN1C(=O)c2cccnc2Oc2ccc(Cl)cc21)Nc1ccccc1F` here?
Answer: inconclusive [inhibitor, single point]

Question: With `CC(C)(C)OC(=O)C[C@@H]1C/C=C\C[C@H](CC(=O)NCCO)C(=O)NC[C@@H](c2ccccc2)OC1=O` as the compound, how does the Potency read?
Answer: inactive

Question: With `Cc1c(C)n(CCO)c2ncnc(Nc3ccc(F)cc3)c12` as the compound, how does the Potency read?
Answer: inactive

Question: Which Potency does the source give for `O=C(Nc1ccccc1)c1cccc(S(=O)(=O)Oc2ccc([N+](=O)[O-])cc2)c1` here?
Answer: inconclusive [inhibitor, single point]

Question: With `Cc1cc(C(C)(C)C)cc(CN2CCN(S(=O)(=O)c3cccs3)CC2)c1O` as the compound, how does the Potency read?
Answer: inactive

Question: Which Potency does the source give for `COc1ccc(-c2cn3cccnc3n2)cc1NC(=O)COc1ccccc1` here?
Answer: active: 20.6 µM

Question: For `COC1[C@@H](O[C@@H]2O[C@H](C)[C@@H](O[C@H]3C[C@@](C)(O)[C@H](OC(=O)CC(C)C)[C@H](C)O3)[C@H](N(C)C)[C@H]2O)[C@@H](CC=O)C[C@@H](C)[C@@H](O)/C=C/C=C/C[C@@H](C)OC(=O)C[C@H]1OC(C)=O` (stereo not given in full), which Potency is on record?
Answer: inconclusive [inhibitor, single point]

Question: With `Cc1c(CC(=O)N2CCCCC2)c(=O)oc2cc3occ(C(C)(C)C)c3cc12` as the compound, how does the Potency read?
Answer: inconclusive [inhibitor, single point]

Question: With `Cc1nc(NCCN2CCOCC2)c2nnn(Cc3c(F)cccc3Cl)c2n1` as the compound, how does the Potency read?
Answer: inactive

Question: With `O=C(CNC(=O)c1ccccc1)OCCCOC(=O)CNC(=O)c1ccccc1` as the compound, how does the Potency read?
Answer: inactive

Question: With `CC(=O)Nc1ccc(NC(=O)c2cccc(-c3cc4ccccc4oc3=O)c2)cc1` as the compound, how does the Potency read?
Answer: inactive

Question: With `Cc1cc(C(=O)N/N=C/c2cccnc2)c2ccccc2n1` as the compound, how does the Potency read?
Answer: inconclusive [inhibitor, single point]

Question: For `CCCCn1c(=O)[nH]c(=O)c2c1nc(-c1ccc(-c3ccc(F)cc3)o1)n2C`, which Potency is on record?
Answer: inconclusive [inhibitor, single point]

Question: With `CCOC(=O)N1CCN(c2nc(-c3cccs3)nc3ccccc23)CC1` as the compound, how does the Potency read?
Answer: active: 23.1 µM

Question: Which Potency does the source give for `O=C(CC1(O)C(=O)Nc2ccc(Br)cc21)c1ccc2c(c1)OCO2` (stereo not given) here?
Answer: active: 25.9 µM

Question: For `Cc1cccc(N=C2NC(=O)/C(=C/c3cccn3C)S2)c1`, which Potency is on record?
Answer: inconclusive [inhibitor, single point]
